According to PMC5540273 (PLoS ONE, 2017):
For part of these data: This list holds what a sample rich in strong results left over. Only a part is listed here, and it is no random draw.

Tests used:
Conditions in all cases: concentration: 1 μM,replicates: in singlicate; n = 1
ARK5 = tested on: T1, ARK5
T1 construct: gene NUAK1

ASK1 = tested on: T2, ASK1
T2 construct: gene MAP3K5

ASK2 = tested on: T3, ASK2
T3 construct: gene MAP3K6

AURKA = tested on: AURKA
AURKB = tested on: AURKB
AURKC = tested on: AURKC
AXL = tested on: AXL
BIKE = tested on: T4, BIKE
T4 construct: gene BMP2K

BLK = tested on: BLK
BMPR1A = tested on: BMPR1A
BMPR1B = tested on: BMPR1B
BMPR2 = tested on: BMPR2
BMX = tested on: BMX
BRAF = tested on: BRAF
BRK = tested on: T5, BRK
T5 construct: gene PTK6

BRSK1 = tested on: BRSK1
BRSK2 = tested on: BRSK2
BTK = tested on: BTK
BUB1 = tested on: BUB1
CAMK1B = tested on: CAMK1B
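Further: KINOMEscan kinase panel screen.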

| SMILES | %Inh (ARK5) [%] | %Inh (ASK1) [%] | %Inh (ASK2) [%] | %Inh (AURKA) [%] | %Inh (AURKB) [%] | %Inh (AURKC) [%] | %Inh (AXL) [%] | %Inh (BIKE) [%] | %Inh (BLK) [%] | %Inh (BMPR1A) [%] | %Inh (BMPR1B) [%] | %Inh (BMPR2) [%] | %Inh (BMX) [%] | %Inh (BRAF) [%] | %Inh (BRK) [%] | %Inh (BRSK1) [%] | %Inh (BRSK2) [%] | %Inh (BTK) [%] | %Inh (BUB1) [%] | %Inh (CAMK1B) [%] |
| --- | --- | --- | --- | --- | --- | --- | --- | --- | --- | --- | --- | --- | --- | --- | --- | --- | --- | --- | --- | --- |
| COc1cccc(C2=C(Nc3ccc(SC)cc3)C(=O)NC2=O)c1 [SB-331032] | 0 | 12 | 0 | 28 | 25 | 0 | 0 | 31 | 23 | 0 | 7 | 45 | 0 | 24 | 0 | 0 | 0 | 0 | 20 | 19 |
| Cc1ccc(C)c(Oc2nccc(-c3c(-c4ccc(F)cc4)ncn3C3CCNCC3)n2)c1.O=C(O)C(F)(F)F.O=C(O)C(F)(F)F.O=C(O)C(F)(F)F [SB-284852] | 0 | 1 | 0 | 0 | – | 47 | 0 | 17 | 1 | 0 | 9 | 0 | 0 | 0 | 13 | 0 | 3 | 0 | 0 | 0 |
| O=C1NC(=O)C(c2ccc(Cl)cc2)=C1Nc1cccc(O)c1 [SB-333613] | 2 | 0 | 23 | 30 | 35 | 10 | 12 | 0 | 0 | 6 | 8 | 31 | 2 | 34 | 9 | 0 | 9 | 76 | 48 | 31 |
| O=C1NC(=O)C(c2ccccc2Cl)=C1Nc1ccccc1 [SB-376715] | 0 | 42 | 0 | 27 | 0 | 14 | 12 | 15 | 0 | 0 | 0 | 0 | 21 | 0 | 5 | 26 | 40 | 40 | 0 | 46 |
| CS(=O)(=O)c1ccccc1-c1nc(-c2ccc(F)cc2)c(-c2ccncc2)[nH]1 [SB-213663] | 0 | 0 | 0 | 10 | 0 | 0 | 40 | 0 | 25 | 8 | 0 | 0 | 0 | 51 | 0 | 13 | 0 | 23 | 23 | 66 |
| O=C1NC(=O)c2c1c(-c1ccccc1)cc1[nH]c3ccc(O)cc3c21 | 39 | 26 | 3 | 56 | 76 | 47 | 4 | 93.8 | 0 | 14 | 25 | 16 | 14 | 12 | 26 | 82 | 68 | 0 | 54 | 14 |
| CSc1ccc(NC2=C(c3cccc(Cl)c3)C(=O)NC2=O)cc1 [SB-341528] | 0 | 42 | 4 | 6 | 0 | 4 | 7 | 7 | 0 | 13 | 0 | 0 | 2 | 0 | 3 | 0 | 16 | 0 | 100 | 0 |
| Cc1cc(C)cc(Oc2nccc(-c3c(-c4ccc(F)cc4)ncn3C3CCNCC3)n2)c1.O=C(O)C(F)(F)F.O=C(O)C(F)(F)F.O=C(O)C(F)(F)F [SB-284851] | 53 | 1 | 0 | 0 | 14 | 8 | 0 | 15 | 9 | 0 | 0 | 0 | 0 | 0 | 0 | 0 | 7 | 0 | 0 | 0 |
